Results reported in PubChem BioAssay AID894 (National Center for Advancing Translational Sciences (NCATS), 2007).
Values joined by “and” are separate entries in the source; they are usually repeats but may differ in a detail not shown here. Equal values may be shown once. Out of some 150,000 compounds screened, about 6,500 (4.3%) were called active. Another 12% or so got no clear call; they are omitted. Calls come from the whole dose curve; as a rule, active = well fitted inhibition curve with a large enough effect (not every such curve was filed as active); inconclusive = small, poorly fitted or top-dose-only effect, or another doubt; inactive = no such curve, though single readings can be large or run the other way. This is a selection; strong and weak results do not stand in their true shares. Some compounds were tested as several samples or in several runs, with calls that do not always agree.

Target: 15-hydroxyprostaglandin dehydrogenase [NAD(+)] (Homo sapiens) (UniProt P15428)
Chain of UniProt P15428 (P15428 whole entry, looked up): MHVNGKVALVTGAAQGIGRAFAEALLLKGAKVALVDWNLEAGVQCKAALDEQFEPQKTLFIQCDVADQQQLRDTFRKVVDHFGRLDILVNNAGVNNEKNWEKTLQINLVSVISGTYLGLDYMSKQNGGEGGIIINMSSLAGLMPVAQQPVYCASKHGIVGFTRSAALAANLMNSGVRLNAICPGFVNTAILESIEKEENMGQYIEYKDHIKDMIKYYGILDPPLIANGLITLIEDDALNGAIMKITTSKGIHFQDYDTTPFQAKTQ
Assay: qHTS Assay for Inhibitors of HPGD (15-Hydroxyprostaglandin Dehydrogenase)
Settings: purified HPGD, NADH fluorescence kinetic, PGE2 substrate; activity change, negative = inhibition: stronger effect = lower value
Method in brief: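 NADH formation kinetics: reaction with 30 uM PGE2 and 1 mM NAD+ (final), 20 nM enzyme, Tris-HCl pH 8 with Tween 20, after 15 min compound preincubation at room temperature. Fluorescence change, last versus first of five reads.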
% is set by controls: 0 for no effect and ±100 for the full control effect; potency is the fitted concentration of half-maximal effect.

Activity change, negative = inhibition, inactive:
CC(C(=O)O)c1cccc(C(=O)c2ccccc2)c1 (centres undefined) -8.39% and -16.9%, CCc1nc(N)c(C#N)c(-c2ccc(OC)c(OC)c2)c1C 42.4%, CNc1ccccc1C(=O)OCC(=O)c1ccccc1 80.2%, C=C1c2c(Cl)ccc(O)c2C(O)=C2C(=O)[C@@]3(O)C(O)=C(C(N)=O)C(=O)[C@@H](N(C)C)[C@@H]3[C@@H](O)[C@H]12 -21.2%, Cc1cc(C)cc(NC(=O)/C(C#N)=C/c2cn(CC(=O)NCc3ccco3)c3ccccc23)c1 167%, N#C/C(C(=O)Oc1ccccc1)=C1/Nc2ccccc2-c2ccccc21 63.7%, C/C(=C\COc1cc(=O)[nH]c2ccccc12)CCC(O)C(C)(C)O (centres undefined) -9.36%, COc1cc2cc(Oc3ccc4ccc(=O)oc4c3)c(=O)oc2cc1O -21.7%, N[C@@H](CCC(=O)N[C@H](CSN=O)C(=O)NCC(=O)O)C(=O)O -4.78%, NC(C(=O)N[C@@H]1C(=O)N2C(C(=O)O)=C(Cl)CS[C@H]12)c1ccccc1 (some centres undefined) -25.9%, NC(=NCc1ccccc1)NC(=O)c1nc(Cl)c(N)nc1N -18.5%, O=C(O)c1cc(O)c2c(c1)C(=O)c1cccc(O)c1C2=O -0.291% and -27.5%, Cc1nnc(SCc2cc(=O)oc3ccc4ccccc4c23)n1Cc1ccccc1 35%, O=C(Nc1ccn(Cc2ccccc2F)n1)c1ccc(COc2cc(Cl)ccc2Cl)o1 194%, COC(=O)[C@H](Cc1ccccc1)NC(=O)O[C@H]1C(=O)c2cc(OC)ccc2O[C@@H]1c1ccc(OC)c(Br)c1 -18.3% and -4.5%, COc1ccc(C(=O)N/C(=C/c2cccc3ccccc23)C(=O)NCCc2c[nH]c3ccccc23)cc1OC -12.7%, CC(C)NC[C@@H](O)c1ccc(O)c(O)c1 -2.34%, COc1cc(C2Oc3cc(C4Oc5cc(O)cc(O)c5C(=O)C4O)ccc3OC2CO)ccc1O (centres undefined) -21.4%, N#C/C(=C\c1cn(CCOc2ccccc2F)c2ccccc12)C(=O)NCc1cccs1 399%, C#CCn1c(=NC(=O)c2ccc(Br)s2)sc2cccc(OC)c21 254%, CC(C)Cn1c(N)c(C(=O)COC(=O)c2cc(C3CC3)nc3ccccc23)c(=O)n(C)c1=O -27.6%, CC(=O)Oc1ccccc1C(=O)O -7.33% and -17.7%, Cn1cc(C(F)(F)F)nc1-c1ccc(OC[C@@H](O)CNCCOc2ccc(O)c(C(N)=O)c2)cc1 -16.2%, Cc1ccnc(NC(=O)c2ccc([N+](=O)[O-])o2)c1 284%, Cc1onc(-c2ccccc2Cl)c1C(=O)N[C@H]1C(=O)N2[C@H]1SC(C)(C)[C@H]2C(=O)O -0.4%, Nc1cccc(-c2cc(-c3ccccc3)nc(-c3cccc(N)c3)n2)c1 30.6%, CCOc1ccc(-c2n[nH]c(C)c2-c2ccccc2OC)c(O)c1 67.6%, CCCn1c(=O)[nH]c(=O)c2[nH]cnc21 -17.8%, O=C(O)c1cn(C2CC2)c2cc(N3CCNCC3)c(F)cc2c1=O -15.5%, CCN(CC)S(=O)(=O)c1ccc2oc(C(=O)Nc3ccc(OC)cc3OC)c(C)c2c1 542%, Cc1nc2ccc(NC(=O)c3ccc(S(=O)(=O)N4CCOCC4)cc3)cc2s1 68%, COc1ccccc1-c1c(C)nn2c(N3CCN(c4ccccc4OC)CC3)cc(C)nc12 85.3%, O=C(Nc1ccc(S(=O)(=O)N2CCN(c3ccccc3)CC2)cc1)c1cccs1 269%, C[C@@H](C(=O)O)c1cccc(C(=O)c2ccccc2)c1 -6.84%, CCc1nc(NCC(C)C)c(C#N)c2c1COC(C)(C)C2 89.2%, Oc1c(Cl)cc(Cl)c(Cl)c1Cc1c(O)c(Cl)cc(Cl)c1Cl -15.8% and -6.53%, COC(=O)[C@@H]1C2CC3c4[nH]c5cc(OC)ccc5c4CCN3CC2C[C@H](OC(=O)c2cc(OC)c(OC)c(OC)c2)C1OC (some centres undefined) -19.4%, CCOC(=O)c1cc2ccc(OC(=O)c3ccco3)cc2oc1=O 91.3%, C/C=C(\C)C(=O)OC1c2c(ccc3ccc(=O)oc23)OC(C)(C)C1OC(C)=O (centres undefined) -5.42% and -15.1%, O=c1c(O)c(-c2ccc(O)cc2O)oc2cc(O)cc(O)c12 -15.9% and -24.4%, O=c1c2ccccc2oc2nc(-c3ccco3)n(-c3ccccc3)c(=O)c12 30.2%

Potency, active:
C=CCn1c(SCC(=O)c2ccccc2)nnc1-c1ccc2c(c1)OCO2 5.62 µM, COc1cc(/C=N/NC(=O)c2ccc(O)cc2)ccc1Oc1ccc([N+](=O)[O-])cn1 22.4 µM, Cc1cc(SCC(=O)NCCC2=CCCCC2)nc2ccccc12 25.1 µM, O=C(CSc1nc2ccccc2nc1SCC(=O)N1CCCCC1)N1CCCCC1 2.51 µM, CCNC(=O)CCS(=O)(=O)c1ccc2ccccc2c1 31.6 µM, O=c1nc2s/c(=C\c3ccc(-c4ccccc4[N+](=O)[O-])o3)c(=O)n2nc1-c1ccccc1 7.94 µM, Cc1ccc2c(c1)Sc1ccccc1CC2=O 25.1 µM, Cc1ccc(N/N=C(\C#N)C(N)=S)c(C)c1 14.1 µM, COc1c(Cl)cc(C(=O)Nc2ccccc2C(=O)O)cc1Cl 14.1 µM, CCCCNC(=S)Nc1cccc(C(C)=O)c1 31.6 µM, CC1=Nn2c(nnc2-c2ccccc2Cl)SC1 25.1 µM, Cn1c(=O)cc(SCC(=O)NCCC2=CCCCC2)c2ccccc21 7.08 µM, CCCc1c(OCC(O)COc2ccc3c(=O)cc(C(=O)O)oc3c2CCC)ccc(C(C)=O)c1O (centres undefined) 17.8 µM
